In all, about 310,000 compounds went through this assay and about 2,200 (0.71%) showed an effect of 50% or more. The effect is printed as a negative number. The list shows a part of the results.

Sequence of human ether-à-go-go-related gene (hERG) potassium channel (Q12809 whole entry, looked up): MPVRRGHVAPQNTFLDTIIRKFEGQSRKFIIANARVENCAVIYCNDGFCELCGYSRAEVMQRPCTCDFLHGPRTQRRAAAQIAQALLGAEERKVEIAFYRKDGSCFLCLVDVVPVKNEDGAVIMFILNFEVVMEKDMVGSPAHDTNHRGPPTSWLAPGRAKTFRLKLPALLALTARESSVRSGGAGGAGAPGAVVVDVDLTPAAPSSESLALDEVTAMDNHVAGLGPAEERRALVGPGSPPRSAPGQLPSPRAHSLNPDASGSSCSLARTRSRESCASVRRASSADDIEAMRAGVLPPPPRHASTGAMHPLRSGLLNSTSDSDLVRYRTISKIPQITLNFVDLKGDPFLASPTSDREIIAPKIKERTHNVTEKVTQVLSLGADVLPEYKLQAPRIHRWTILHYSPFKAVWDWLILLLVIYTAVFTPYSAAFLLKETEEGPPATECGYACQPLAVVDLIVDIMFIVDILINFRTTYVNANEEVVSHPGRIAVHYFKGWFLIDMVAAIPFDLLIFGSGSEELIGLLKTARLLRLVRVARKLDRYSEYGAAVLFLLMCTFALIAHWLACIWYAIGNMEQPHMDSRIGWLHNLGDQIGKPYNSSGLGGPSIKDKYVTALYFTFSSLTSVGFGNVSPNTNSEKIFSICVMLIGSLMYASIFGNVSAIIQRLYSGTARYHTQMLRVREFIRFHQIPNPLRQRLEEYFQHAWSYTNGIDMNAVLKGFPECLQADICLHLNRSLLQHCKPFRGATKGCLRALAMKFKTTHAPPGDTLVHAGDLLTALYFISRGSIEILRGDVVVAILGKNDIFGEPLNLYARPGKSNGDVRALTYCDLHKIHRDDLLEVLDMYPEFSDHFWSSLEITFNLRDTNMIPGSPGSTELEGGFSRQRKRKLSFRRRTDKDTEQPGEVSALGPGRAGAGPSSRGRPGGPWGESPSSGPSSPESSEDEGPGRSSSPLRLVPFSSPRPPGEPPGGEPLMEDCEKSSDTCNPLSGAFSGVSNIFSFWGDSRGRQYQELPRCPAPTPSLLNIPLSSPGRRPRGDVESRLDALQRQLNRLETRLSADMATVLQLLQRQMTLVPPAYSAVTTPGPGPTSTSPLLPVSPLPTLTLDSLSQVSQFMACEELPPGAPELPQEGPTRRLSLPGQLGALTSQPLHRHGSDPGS

The assay concerns the target human ether-à-go-go-related gene (hERG) potassium channel (human, UniProt Q12809). Briefly: primary screen, population patch clamp on CHO cells stably expressing hERG.
As to `CC(=O)c1c(NCCc2ccccc2)nc(=S)n(-c2ccccc2)c1C`, the “hERG current change (%, negative = inhibition) at 1uM” value is on record as 12.4%.
Then `NC(CO)(CO)CO.O=C(c1ccccc1)c1ccc2n1CCC2C(=O)O` (stereo not drawn), with 5.92%; and `CCc1nc2ccccc2nc1N1CCN(S(=O)(=O)c2c(C)cc(Cl)cc2C)CC1`, with 12.6%; and `O=C(Nc1ccc(N2CCN(C(=O)c3cccs3)CC2)c(Cl)c1)c1cccnc1`, with 6.24%.
With `S=C(Nc1ccccc1)N1CCOCCOCCN(C(=S)Nc2ccccc2)CCOCCOCC1` the figure was 8.24%; with `COc1ccccc1N1CCN(C(=O)COc2ccc(C)cc2Br)CC1`, 11.7%.
Take `O=C(c1cc(-c2ccncc2)nc2ccccc12)N1CCN(S(=O)(=O)/C=C/c2ccccc2)CC1`: the “hERG current change (%, negative = inhibition) at 1uM” value is listed as -8.43%.
With `COc1cc(-c2onc3ccc(Br)cc23)cc(OC)c1OC` the figure was 10.9%; with `COc1nc(Nc2ccc([N+](=O)[O-])cc2)nc(NC(C)C)n1`, 0.558%.
Then `Cn1nnnc1SCc1ccc(Cl)cc1`, with 23.4%.
Then `COc1ccccc1C(=O)NCCNC(=O)c1ccco1`, with 15.7%; and `COc1ccc(NS(=O)(=O)c2cccc(C(=O)N/N=C/c3cn(-c4ccccc4)nc3-c3ccccc3)c2)cc1`, with 7.66%; and `Cc1cccc(C)c1NC(=O)CNC(=O)CNC(=O)Cc1cccc2ccccc12`, with 8.54%.
For `CCCS/C(N)=N/N=C/c1ccccc1O`, the “hERG current change (%, negative = inhibition) at 1uM” value was 4.25%.
Then `CCOC(=O)CCNCC1COc2ccccc2O1.Cl` (stereo not drawn), with 4.49%; and `CCN(CCNC(=O)C1CCCN(S(=O)(=O)c2cnc[nH]2)C1)c1ccccc1` (stereo not drawn), with 19.7%.
With `O=C(NCCCNC(=O)c1ccccn1)c1cccc(F)c1` the figure was 7.69%; with `Cc1ccnc(NS(=O)(=O)c2ccc(NC(=O)C3CC3)cc2)n1`, 18.5%; with `CS(=O)(=O)N(C(=O)NC(=O)NC12CC3CC(CC(C3)C1)C2)C1CCCCC1`, 4.78%.
For `COc1ccc(N(CC(=O)NC2CCCCC2C)S(=O)(=O)c2c(C)nn(C)c2C)cc1` (stereo not drawn), the “hERG current change (%, negative = inhibition) at 1uM” value amounted to 0.095%.
Consider `CCN=C1SC(CC(=O)Nc2ccc(C)cc2)C(=O)N1CC` (stereo not drawn), for which the “hERG current change (%, negative = inhibition) at 1uM” value is recorded as 13.4%.
Then `Cc1cc2oc(C(=O)Nc3cccnc3)c(C)c2cc1C`, with -6.17%; and `COC(=O)c1ccc(NC(=O)CNS(=O)(=O)c2cccs2)cc1`, with 5.87%; and `Cc1ccc(C(=O)N/C(=C\c2ccco2)C(=O)NCCCN2CCOCC2)cc1C`, with 9.35%.

Values taken from PMC4336329 (PLoS ONE, 2015).
